The chains are these.
T1: UNK ZnF1-3 (human, UniProt Q9C0B0 31-174)
T1 sequence: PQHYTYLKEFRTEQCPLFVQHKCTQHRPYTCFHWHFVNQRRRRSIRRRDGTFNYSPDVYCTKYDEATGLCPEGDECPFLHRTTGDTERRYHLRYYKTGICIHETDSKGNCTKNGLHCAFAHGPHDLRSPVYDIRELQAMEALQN

B1: chrX:71549400:71549401:+_ENSMUSG00000019087_ENSMUST00000019231|mus_hu|mus_mus_mus_hu_False|28_88 (ssRNA)
RNA: GGGAGUUCUACAGUCCGACGAUCGCAGUAGGAAGAGGGAAGCUCUUCAUCCACUGUCGCUGCAGGGUGGGAAAGCAACAACACGGACACCGUCCCACCCUCAACCCUCUCAGGUGUACAGGGUCACACAAUCUGGGUCAAAGACAACAGAGGAUUGAGCAUCA
B2: chr10:24872911:24872912:-_ENSG00000107863_ENST00000396432|hu_mus|FALSE|FALSE (ssRNA)
RNA: GGGAGUUCUACAGUCCGACGAUCCUGGUAAAUGGAAGGAAACUUGUUACUGAUAAAAUGCAUUCAUUUAUUCAAUUUUCUAAUUUUAACAAUAUGGCACCCUAAAAAUCAAAUGUACUUUUAUCAUGAGGCACUUUUGUUAGUCAACAGAGGAUUGAGCAUCA
B3: chr8:113366719:113366720:-_ENSMUSG00000033732_ENSMUST00000042012|mus_mus|motif|central (ssRNA)
RNA: GGGAGUUCUACAGUCCGACGAUCCAUAUUCUUUGAUGGCUGGUAUUCCAAGAUAACAAUCCGGCCUGAGUCACUGCCAACGGCAAUGUAGUCUUUGGUGCCACCUGUUAGCCUAAACGCCAUAAGUGACCGGAUAACACCAAACAACAGAGGAUUGAGCAUCA
B4: chr1:66486420:66486421:+_ENSMUSG00000015222_ENSMUST00000077355|mus_mus|motif|central (ssRNA)
RNA: GGGAGUUCUACAGUCCGACGAUCUUAAAAUUUAUUUUUAAAUAGGGAGAGAACCCUGCUAACAUCUACUUUCACAUACCGGAAAUUGCAACACCAAAGGGUGCAGGAGACACAGAUACUGUGAAUAAAGAAGUAUCAUAUUCACAACAGAGGAUUGAGCAUCA
B5: chr3:148802587:148802588:-_ENSG00000071794_ENST00000310053|hu_mus|hu_hu_hu_mus_False|78_98 (ssRNA)
RNA: GGGAGUUCUACAGUCCGACGAUCUCCAACAACUUGUCCUCUCAAACUUCCAAAUAAAACGGAAUCUUGCUCUUCAUCACUCGUUAGGAAGUCAUCUGGAGGAAUAAUGUCUUGGAAUUCAAAAUGUGGCAAGAAAGUUGAGUACAACAGAGGAUUGAGCAUCA
B6: chr3:105487335:105487336:-_ENSMUSG00000027905_ENSMUST00000090680|mus_hu|FALSE|FALSE (ssRNA)
RNA: GGGAGUUCUACAGUCCGACGAUCAACAGAAUGUAUCUGUACAGCAAUUUCUCUUGUAGGAGCCAAGAUCAAAAUCUGGGUACUUAAGUUUUCAAGAACAAGAGAGUCCAAAGCUAUGGUGGAGAACACACAGGUUUUCCCGGUCAACAGAGGAUUGAGCAUCA
B7: chr16:13687521:13687522:+_ENSMUSG00000022684_ENSMUST00000023365|mus_mus|FALSE|FALSE (ssRNA)
RNA: GGGAGUUCUACAGUCCGACGAUCGGCUGCAAGACUUUGGACUACAUCAUUAUUCUGCUGAAUGUCUUCAACUCGCAUUCUAAUGGCAUCAGGAAAUAACUUUUCAAUGGCAUCCCUGAGGAGAAUGUUGACUUUAGGAAAACCCAACAGAGGAUUGAGCAUCA
B8: chr1:109605286:109605287:-_ENSG00000197780_ENST00000461096|hu_mus|hu_hu_hu_mus_True|8_18 (ssRNA)
RNA: GGGAGUUCUACAGUCCGACGAUCAAGUUUCAGAGUAACAUUCAGUAACCUCUUUAAAUGCAAUUAUCCUUAUUAUAAGCUAAGCAGAAUAAUAAUUUAAUACCGUAAGUGAACUACCACAAAACCUGUGUAUUCAGAAAUGGUCAACAGAGGAUUGAGCAUCA
B9: 97528413_97530788_701_CDS_ENSMUSG00000038437_ENSMUST00000044730|mouse|control|control (ssRNA)
RNA: GGGAGUUCUACAGUCCGACGAUCGCUGCCUCCUCCUGCUCCUCCUCCUCCCCCGCUGGAGUGCCGGGAUGUCUUCAUCUUGCUGAAGUGGUAUUUGCAGUAGCCGCAGUACUUGACGUUGUCCACCUCCAGGACUUCUUCCUCCAACAGAGGAUUGAGCAUCA
B10: chr12:4461469:4461470:+_ENSG00000078237_ENST00000179259|hu_mus|FALSE|FALSE (ssRNA)
RNA: GGGAGUUCUACAGUCCGACGAUCGCUUUCUCUCUGCCCUGCCUUGCCCAGGAUUAGCUGACAAAUGAAAUCAAAGAAAUCCUUUCCGCGCAUCUUUACCUGCUCAACUGUCUCUCCUCCAGGCGGGGUGAACAUGGGGCACUCCAACAGAGGAUUGAGCAUCA
B11: 47001521_47005262_636_CDS_ENSG00000069345_ENST00000317089|human|control|control (ssRNA)
RNA: GGGAGUUCUACAGUCCGACGAUCACUACACUUUUGGACAGCUCCAGACUUUCCGCCUUGGCCACUGCAUGCACUACAGAGCACAUUCUUGCUAAGUUGUAGUUUGGUUGUCUUGCCAUUAUACAGAUCUUCUAAAGAUACUUUCAACAGAGGAUUGAGCAUCA
B12: chr11:100882373:100882374:+_ENSMUSG00000019302_ENSMUST00000044721|mus_mus|mus_mus_mus_hu_True|1_48 (ssRNA)
RNA: GGGAGUUCUACAGUCCGACGAUCUUCCUGGUUUGUGUUGAUUUCCUUCAGUUCAUUUUCAAUCUUCUCAAAAUUGGCCUCUAAGUCGAUCAUGUCCCGGGGGAAGGGAACCUCUGGGUUUUCACCGGUGUCCAUAAUUGGGAUCAACAGAGGAUUGAGCAUCA
B13: chr22:19452774:19452775:-_ENSG00000070010_ENST00000399523|hu_mus|FALSE|FALSE (ssRNA)
RNA: GGGAGUUCUACAGUCCGACGAUCCUUCUCAUUGUAGUUGAUAGCAAUCACAUCUCCAGUCGUCAGACAGGCGAAGUUUCUCAAUGCAUUUUCUAAUACCGCUUUAGGGUUGGUAAUAUCCAGGAAGUCUGGGCUCUGAGGCUGCAACAGAGGAUUGAGCAUCA
B14: 91665463_91715946_2812_CDS_ENSMUSG00000040506_ENSMUST00000045705|mouse|control|control (ssRNA)
RNA: GGGAGUUCUACAGUCCGACGAUCCCACCACUGGAGCCUGUAGGUAGUAUUGGCAAUGUUACUGGCCACAGCAGACUGUCCAUCUCCAAUUACUGCCCCUGCCAGGACCCUGUUAACAGAAGAAUGAGUAGCCAAGCCAGGCUGCAACAGAGGAUUGAGCAUCA

Experimental findings from paper PMC12136788 are described below.

The other results are listed elsewhere or left out.

In the assay the target is T1, UNK ZnF1-3. The experiment in a line: nsRBNS (natural sequence RNA bind-n-seq); RBNS binding buffer (assumed for nsRBNS): 25 mM Tris pH 7.5, 150 mM KCl, 3 mM MgCl2, 0.01% Triton X-100, 500 ug/ml BSA, 20 U/ml SUPERase-In, 4 C; UNK is unkempt and MSI1 is Musashi-1; names of the RNAs are library labels; protein concentration not given here; high values mean tight binding.
In turn, B1 yielded a binding signal of 0.481 enrichment R. Turning to B2, the binding signal is 1.06 enrichment R.

As for B3, the binding signal was 0.607 enrichment R.

Take B4: the binding signal was determined as 2.29 enrichment R. For B5 the value was 0.912 enrichment R; for B6, 0.787 enrichment R; for B7, 1.16 enrichment R.

B8 returned a binding signal of 0.556 enrichment R.

Turning to B9, the binding signal was determined as 0.795 enrichment R. Turning to B10, the binding signal amounted to 1.33 enrichment R.

In turn, B11 displayed a binding signal of 0.589 enrichment R.

The molecule B12 yielded a binding signal of 0.61 enrichment R. Take B13: the binding signal was 0.735 enrichment R. Turning to B14, the binding signal was found to be 0.888 enrichment R.
